# Results taken from publication PMC4336329 (PLoS ONE, 2015).
# Among all 310,000 compounds or so, about 14,000 (4.5%) showed an effect of 50% or more. The effect is printed as a negative number. The list shows a part of the results.
# Target: human ether-à-go-go-related gene (hERG) potassium channel (human, UniProt Q12809)
# Assay: primary screen, population patch clamp on CHO cells stably expressing hERG
# 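Also: peak tail current of the secondary pulse compared with the same well before compound.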
# Sequence of human ether-à-go-go-related gene (hERG) potassium channel (Q12809 whole entry, looked up): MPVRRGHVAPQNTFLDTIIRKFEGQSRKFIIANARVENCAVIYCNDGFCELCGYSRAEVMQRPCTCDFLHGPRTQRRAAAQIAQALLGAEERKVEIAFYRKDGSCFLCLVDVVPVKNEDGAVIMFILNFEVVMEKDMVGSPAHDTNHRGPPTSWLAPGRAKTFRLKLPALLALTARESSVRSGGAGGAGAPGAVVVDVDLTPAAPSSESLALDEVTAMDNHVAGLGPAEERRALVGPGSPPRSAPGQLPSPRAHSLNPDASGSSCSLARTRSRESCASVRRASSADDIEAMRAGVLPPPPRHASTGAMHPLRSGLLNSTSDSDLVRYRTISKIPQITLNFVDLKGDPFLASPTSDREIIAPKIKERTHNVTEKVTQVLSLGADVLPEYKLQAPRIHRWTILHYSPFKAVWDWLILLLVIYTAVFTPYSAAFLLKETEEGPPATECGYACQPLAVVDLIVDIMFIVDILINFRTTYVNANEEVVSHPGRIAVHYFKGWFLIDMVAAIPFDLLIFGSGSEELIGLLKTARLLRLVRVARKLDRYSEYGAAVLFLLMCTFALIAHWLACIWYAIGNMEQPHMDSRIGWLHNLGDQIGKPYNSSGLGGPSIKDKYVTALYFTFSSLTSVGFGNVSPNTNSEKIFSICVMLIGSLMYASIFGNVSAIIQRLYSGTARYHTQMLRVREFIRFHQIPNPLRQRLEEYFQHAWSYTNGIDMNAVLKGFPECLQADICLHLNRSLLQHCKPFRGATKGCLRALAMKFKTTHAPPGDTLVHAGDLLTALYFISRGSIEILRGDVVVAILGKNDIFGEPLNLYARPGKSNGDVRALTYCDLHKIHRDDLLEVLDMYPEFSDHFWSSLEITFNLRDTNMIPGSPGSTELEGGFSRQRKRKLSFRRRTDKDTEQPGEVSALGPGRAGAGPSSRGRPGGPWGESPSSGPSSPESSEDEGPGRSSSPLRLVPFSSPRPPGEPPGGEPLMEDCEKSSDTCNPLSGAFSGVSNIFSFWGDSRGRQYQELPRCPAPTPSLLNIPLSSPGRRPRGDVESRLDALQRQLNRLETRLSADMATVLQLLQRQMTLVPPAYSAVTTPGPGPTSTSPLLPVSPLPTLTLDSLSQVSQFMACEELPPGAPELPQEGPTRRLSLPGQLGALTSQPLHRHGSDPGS
row,SMILES,"hERG current change (%, negative = inhibition) at 10uM [%]"
1,O=C(COC(=O)/C=C/c1cnc2ccccc2n1)NCC(F)(F)F,6.96
2,CC(C)c1ccc(O)c(N)c1,-3.7
3,COc1ccc(OC)c(S(=O)(=O)n2ccc(C)n2)c1,2.45
4,COc1ccc(OCCSc2nc3ccccc3c(=O)[nH]2)cc1,3.43
5,O=S(c1ccsc1)c1ccsc1,10.5
6,CCN(CC)CCn1c(=N)n(CC(O)c2ccco2)c2ccccc21.Cl (stereo not drawn),-73.2
7,COc1ccc(N(CC(=O)Nc2ccc(F)c(F)c2)S(=O)(=O)c2c(C)[nH]c(=O)[nH]c2=O)cc1,19.9
8,O=C(CSc1ccc(-c2ccco2)nn1)Nc1cccc(F)c1,-55.2
9,CC(C)(CNC(=O)COc1ccccc1Cc1ccccc1)N1CCOCC1,-55.6
10,C=CCOc1cccc(C2/C(=C(/O)c3ccccc3)C(=O)C(=O)N2CCN2CCOCC2)c1 (stereo not drawn),4.36
11,CCCN(C(=O)c1cccc(S(=O)(=O)N2CCN(Cc3ccccc3)CC2)c1)C1CCS(=O)(=O)C1 (stereo not drawn),-17.3
12,CCOC(=O)C1=C(CN2CCN(CCC#N)CC2)NC(=O)NC1c1ccc2c(c1)OCO2 (stereo not drawn),-27.2
13,CN(CC(=O)Nc1ccc(F)c(F)c1F)C(=O)c1ccc2c(c1)S(=O)(=O)N=C1CCCCCN12,-18.7
14,CC(=O)NCCc1cc2ccc(C)c(C)c2[nH]c1=O,10.1
15,Cc1ccc(C(=O)/C=C/N(C)C)o1,22.7
16,COc1cc(OC)cc(C(=O)OCC(=O)Nc2ccc3[nH]c(=O)[nH]c3c2)c1,-2.68
17,O=C(COC(=O)c1ncc(Cl)c(Cl)c1Cl)Nc1ccc(Cl)cn1,-43.4
18,CCOc1ccccc1OCC(=O)Nc1cccc(S(=O)(=O)N2CCCCCC2)c1,-43.6
19,CCC(=O)C1CCCN(C(=O)CCc2nnc(-c3ccc4c(c3)OCO4)o2)C1 (stereo not drawn),-8.82

row,SMILES,"hERG current change (%, negative = inhibition) at 10uM [%]"
1,CSc1cc(-c2ccccc2)n(Cc2c(Cl)cccc2Cl)c(=O)c1C#N,13.7
2,COc1ccc(Cl)cc1NC(=S)N1CCN(C(=O)C2CCCO2)CC1 (stereo not drawn),17.7
3,C(=N\Nc1nc2ccccc2[nH]1)/c1ccc2c(c1)OCCO2,10.9
4,Cc1cc(NN)nc(Cc2ccccc2)n1,10.2
5,Cc1cc(OCC(O)CN2CCc3ccccc3C2)cc(C(C)C)c1.Cl (stereo not drawn),-56.2
6,S=C(NCc1ccccc1)NC1CCSc2ccccc21 (stereo not drawn),13.2
7,CCOC(=O)c1nnn(-c2nonc2N)c1-c1ccc(F)cc1,2.11
8,Cc1nn(-c2ccc(C(=O)N3CCN(S(=O)(=O)c4ccccc4C(F)(F)F)CC3)cc2)c(C)c1Cl,-23.8
9,Cc1cccc(NC(=S)N2CCC(N(C)CC3CCCO3)CC2)c1C (stereo not drawn),-12.5
10,O=C(Nc1cccc(Cl)c1)OCCOc1ccccc1,23
11,COc1ccc(C(=O)C(OC(=O)c2ccc(C)c(NC(C)=O)c2)c2ccccc2)cc1 (stereo not drawn),-7.69
12,COc1ccccc1NS(=O)(=O)c1cc(NC(=O)C2CCCC2)ccc1N1CCOCC1,-3.08
13,Cc1cc(-c2ccc(Cl)cc2)c(C#N)c(N)n1,-5.49
14,CN(C)CCOC(=O)c1ccc2[nH]c3c(c2c1)CSCC3.Cl,12
15,O=C(NNC(=S)NCc1ccco1)c1ccc(Cl)s1,14.5
16,CCN(CC1CCCN(CCc2cccc(F)c2)C1)C(=O)c1cc2ccccc2o1 (stereo not drawn),-79.6
17,COCCNC(=O)c1ccc(N2CC3CC(C2)c2cccc(=O)n2C3)c([N+](=O)[O-])c1 (stereo not drawn),21.4
18,COc1ccc(S(=O)(=O)Nc2cccc(C(C)=O)c2)cc1Br,-7.05
19,Cc1ccc(S(=O)(=O)N2CCN(C(=O)CCc3c[nH]c4ccccc34)CC2)cc1,-23.1

row,SMILES,"hERG current change (%, negative = inhibition) at 10uM [%]"
1,CCC(=O)Nc1ccc(C(=O)N/N=C/c2ccc([N+](=O)[O-])cc2)cc1,1.92
2,COc1ccc(S(=O)(=O)N2CCCCC2C(=O)O)cc1 (stereo not drawn),-0.249
3,N#Cc1c(N)n(-c2ccc(C(=O)O)cc2)c2nc3ccccc3nc12,-4.58
4,O=C(c1ccccc1)c1ncc[nH]1,26.1
5,CN1CCCC1c1cccnc1 (stereo not drawn),15.6
6,CCOC(=O)[C@H]1[C@H]2COc3ccc(C)cc3[C@@H]2N2C(=O)CN(Cc3ccc(C)cc3)C(=O)[C@@]12C,4.36
7,C/C(=N\NC(=O)c1ccc(C)cc1C)c1ccc2c(c1)OCO2,0.256
8,NC(=O)C1CCN(C(=O)c2ccc(NS(=O)(=O)c3ccc(F)cc3)cc2)CC1,6.76
9,Cc1ccc(-n2nc3c(SCCN4CCOCC4)nnc(C)c3c2C)cc1,-28.8
10,N#CCC(=O)Nc1ccc(C(=O)N2CCN(c3ccccn3)CC2)cc1,18.4
11,O=C1Nc2ccccc2O/C1=C\c1c(F)cccc1Cl,11.5
12,CC(C)C(=O)Nc1ccc2nn(-c3ccccc3)nc2c1,5.03
13,CCOc1ccc(NC(=O)CN(C)C(=O)c2cc3c(s2)CCC(C)C3)cc1OCC (stereo not drawn),-12.6
14,CCOC(=O)c1oc2ccccc2c1NC(=O)c1ccc(S(=O)(=O)N(C)C)cc1,13
15,COc1ccc(/C=N/Nc2ccccc2C(=O)O)cc1Cn1cc([N+](=O)[O-])cn1,-9.05
16,Cn1c(=O)c2c(nc3sccn32)n(C)c1=O,-9.86
17,CN(C)CCCNC(=O)C1(O)c2cc(Br)ccc2NC(=O)N1c1c(F)cccc1F (stereo not drawn),7.1
18,O=C(NC1CCCC1)c1ccc(COCC(F)(F)C(F)F)o1,-13.1
19,O=C1NC2(CCCCCC2)C(=O)N1Cc1ccccc1Cl,5.29
